The record followed here is PMC4475061.

Sequences of proteins named here, by UniProt entry; tags and fusion partners are left off.
UniProt Q9UQN3: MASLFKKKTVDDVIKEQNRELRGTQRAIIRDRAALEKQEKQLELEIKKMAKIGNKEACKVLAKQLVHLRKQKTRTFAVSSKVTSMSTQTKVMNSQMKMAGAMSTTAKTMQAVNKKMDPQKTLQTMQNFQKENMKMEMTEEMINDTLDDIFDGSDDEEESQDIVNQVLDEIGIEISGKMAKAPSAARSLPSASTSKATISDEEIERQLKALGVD

Results are given in words; binding and its absence hold for the method and conditions named. For part of these data: Binding seen in cells or lysates may run through a third protein. Some results given as binding are weak or reduced against the parent protein; the word gives no strength. For part of these data: Tags and fused reporters may be left off the sequences shown.

Assay [1] deals with T1, One-strep-flag (OSF)-tagged ULK3, full-length (residues 1–472) (human) (UniProt Q6PHR2).
T1 sequence: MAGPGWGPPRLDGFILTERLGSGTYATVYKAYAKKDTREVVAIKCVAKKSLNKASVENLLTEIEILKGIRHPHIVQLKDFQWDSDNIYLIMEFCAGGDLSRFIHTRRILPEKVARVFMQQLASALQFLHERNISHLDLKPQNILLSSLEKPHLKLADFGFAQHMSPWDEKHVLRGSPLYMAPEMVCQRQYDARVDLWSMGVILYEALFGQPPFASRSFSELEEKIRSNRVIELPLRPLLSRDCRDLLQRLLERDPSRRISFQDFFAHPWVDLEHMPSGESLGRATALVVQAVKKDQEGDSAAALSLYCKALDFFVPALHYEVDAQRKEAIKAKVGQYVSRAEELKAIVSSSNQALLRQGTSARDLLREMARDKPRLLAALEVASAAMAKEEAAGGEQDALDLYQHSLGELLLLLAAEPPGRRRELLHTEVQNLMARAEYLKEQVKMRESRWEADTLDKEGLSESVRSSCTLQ
The experiment in a line: pull-down; lysates of singly transfected 293T cells mixed; OSF-ULK3 bound to streptactin sepharose overnight at 4°C; one wash with 350 mM NaCl, three with 150 mM NaCl; α-Myc blot.

Another assay concerns the target T2, GST-ULK3 V338D (human) (UniProt Q6PHR2).
T2 sequence: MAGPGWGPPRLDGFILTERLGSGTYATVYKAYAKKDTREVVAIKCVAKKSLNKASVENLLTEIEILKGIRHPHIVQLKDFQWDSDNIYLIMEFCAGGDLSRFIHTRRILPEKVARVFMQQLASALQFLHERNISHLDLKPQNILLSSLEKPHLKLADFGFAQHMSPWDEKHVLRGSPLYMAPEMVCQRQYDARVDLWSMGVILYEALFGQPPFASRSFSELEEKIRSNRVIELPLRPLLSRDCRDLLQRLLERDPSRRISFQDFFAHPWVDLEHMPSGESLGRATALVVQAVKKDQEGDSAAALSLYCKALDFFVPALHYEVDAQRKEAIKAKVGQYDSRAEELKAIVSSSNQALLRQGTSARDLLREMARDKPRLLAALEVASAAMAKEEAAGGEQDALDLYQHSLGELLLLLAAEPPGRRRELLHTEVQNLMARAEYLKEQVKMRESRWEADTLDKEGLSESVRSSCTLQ
Briefly: pull-down; 293T cells co-transfected with pCAGGS/GST fusions and HA- or YFP-tagged proteins; glutathione-sepharose 3 hr at 4°C; 150 mM NaCl, Triton X-100; Western blot. For orientation: Immunoblotting shows a protein as a band on a membrane.

In another assay the target is T3, GST-ULK3 WT (human) (UniProt Q6PHR2).
T3 sequence: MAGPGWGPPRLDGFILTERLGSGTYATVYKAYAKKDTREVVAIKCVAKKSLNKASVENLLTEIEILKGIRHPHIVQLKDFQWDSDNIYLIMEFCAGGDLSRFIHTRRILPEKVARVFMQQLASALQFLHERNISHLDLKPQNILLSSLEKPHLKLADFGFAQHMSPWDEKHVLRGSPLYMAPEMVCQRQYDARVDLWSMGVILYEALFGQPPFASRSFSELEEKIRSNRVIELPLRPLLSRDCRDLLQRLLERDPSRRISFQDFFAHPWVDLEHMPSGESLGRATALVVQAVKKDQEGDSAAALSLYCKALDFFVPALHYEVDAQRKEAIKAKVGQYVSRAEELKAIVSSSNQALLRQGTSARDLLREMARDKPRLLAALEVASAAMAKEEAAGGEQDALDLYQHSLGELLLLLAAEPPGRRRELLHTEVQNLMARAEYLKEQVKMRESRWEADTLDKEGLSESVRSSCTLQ
The description is as above.

In another assay the target is T4, GST-ULK3 M434D (human) (UniProt Q6PHR2).
T4 sequence: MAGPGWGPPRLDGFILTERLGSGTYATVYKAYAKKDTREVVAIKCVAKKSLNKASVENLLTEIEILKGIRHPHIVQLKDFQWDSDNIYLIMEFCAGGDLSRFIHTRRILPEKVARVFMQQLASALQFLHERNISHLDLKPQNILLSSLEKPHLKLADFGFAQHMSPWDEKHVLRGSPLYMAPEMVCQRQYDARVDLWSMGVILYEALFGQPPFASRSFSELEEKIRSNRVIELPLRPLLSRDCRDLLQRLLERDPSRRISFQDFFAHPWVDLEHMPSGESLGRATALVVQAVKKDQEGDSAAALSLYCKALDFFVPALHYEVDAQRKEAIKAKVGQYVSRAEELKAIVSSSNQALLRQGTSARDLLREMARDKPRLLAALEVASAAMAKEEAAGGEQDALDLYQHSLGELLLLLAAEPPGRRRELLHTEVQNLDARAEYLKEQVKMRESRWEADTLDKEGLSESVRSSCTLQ
Described as above.

Assay [2] addresses T5, CHMP2A fused to the Gal4 DNA-binding domain (human) (UniProt O43633).
T5 sequence: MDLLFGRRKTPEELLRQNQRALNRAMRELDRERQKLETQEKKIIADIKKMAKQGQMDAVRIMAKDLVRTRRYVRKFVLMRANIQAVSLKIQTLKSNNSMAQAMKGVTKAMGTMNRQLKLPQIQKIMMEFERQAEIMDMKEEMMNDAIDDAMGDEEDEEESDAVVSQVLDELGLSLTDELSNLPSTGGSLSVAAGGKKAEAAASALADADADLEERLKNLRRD
Briefly: two-hybrid; yeast Y190; VP16 activation domain fusions (pHB18) against Gal4 DNA-binding domain fusions (pGBKT7); β-galactosidase activity in yeast extracts.

In assay [3] the target is T6, CHMP1A fused to the Gal4 DNA-binding domain (human) (UniProt Q9HD42).
T6 sequence: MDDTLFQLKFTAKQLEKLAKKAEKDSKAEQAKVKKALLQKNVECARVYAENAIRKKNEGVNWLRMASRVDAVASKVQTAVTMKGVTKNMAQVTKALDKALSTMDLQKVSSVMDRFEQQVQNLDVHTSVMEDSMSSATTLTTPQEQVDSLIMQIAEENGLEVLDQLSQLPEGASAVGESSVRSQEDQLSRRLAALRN
The assay is described as above.

Another assay has as its target T7, HA-CHMP1A (human) (UniProt Q9HD42).
T7 sequence: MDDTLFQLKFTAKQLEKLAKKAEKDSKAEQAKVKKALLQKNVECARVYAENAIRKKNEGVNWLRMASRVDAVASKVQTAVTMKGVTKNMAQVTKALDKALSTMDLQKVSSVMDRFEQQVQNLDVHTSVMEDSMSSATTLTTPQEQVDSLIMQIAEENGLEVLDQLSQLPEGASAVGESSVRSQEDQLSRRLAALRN
Briefly: co-IP; 293T cells expressing HA-ESCRT-III; α-HA and protein G-agarose, 4°C; endogenous ULK3 detected by α-ULK3 blot.

In the next assay the target is T8, HA-CHMP2A (human) (UniProt O43633).
T8 sequence: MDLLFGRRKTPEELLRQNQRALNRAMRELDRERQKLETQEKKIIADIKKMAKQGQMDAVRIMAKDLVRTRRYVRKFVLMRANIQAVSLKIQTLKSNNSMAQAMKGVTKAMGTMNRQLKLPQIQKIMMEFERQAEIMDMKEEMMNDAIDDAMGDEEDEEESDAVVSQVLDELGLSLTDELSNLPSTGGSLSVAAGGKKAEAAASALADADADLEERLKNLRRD
The assay is described as above.

The target in the next assay is HA-CHMP2B (human) (UniProt Q9UQN3). The assay is described as above.

B1: CHMP2A-Myc (protein, UniProt O43633 1-222)
chain: MDLLFGRRKTPEELLRQNQRALNRAMRELDRERQKLETQEKKIIADIKKMAKQGQMDAVRIMAKDLVRTRRYVRKFVLMRANIQAVSLKIQTLKSNNSMAQAMKGVTKAMGTMNRQLKLPQIQKIMMEFERQAEIMDMKEEMMNDAIDDAMGDEEDEEESDAVVSQVLDELGLSLTDELSNLPSTGGSLSVAAGGKKAEAAASALADADADLEERLKNLRRD
As for B1, the binding entry in [1] is “binds”.

B2: HA-CHMP1A (protein, UniProt Q9HD42 1-196)
chain: MDDTLFQLKFTAKQLEKLAKKAEKDSKAEQAKVKKALLQKNVECARVYAENAIRKKNEGVNWLRMASRVDAVASKVQTAVTMKGVTKNMAQVTKALDKALSTMDLQKVSSVMDRFEQQVQNLDVHTSVMEDSMSSATTLTTPQEQVDSLIMQIAEENGLEVLDQLSQLPEGASAVGESSVRSQEDQLSRRLAALRN
Take B2: the binding entry with GST-ULK3 V338D (human), with GST-ULK3 WT (human) and with GST-ULK3 M434D (human) was “binds” throughout.

B3: CHMP1A-Myc (protein, UniProt Q9HD42 1-196)
chain: MDDTLFQLKFTAKQLEKLAKKAEKDSKAEQAKVKKALLQKNVECARVYAENAIRKKNEGVNWLRMASRVDAVASKVQTAVTMKGVTKNMAQVTKALDKALSTMDLQKVSSVMDRFEQQVQNLDVHTSVMEDSMSSATTLTTPQEQVDSLIMQIAEENGLEVLDQLSQLPEGASAVGESSVRSQEDQLSRRLAALRN
For B3, the binding result in assay [1] is given as “binds”.

B4: ULK3 fused to the VP16 activation domain (enzyme, UniProt Q6PHR2 1-472)
chain: MAGPGWGPPRLDGFILTERLGSGTYATVYKAYAKKDTREVVAIKCVAKKSLNKASVENLLTEIEILKGIRHPHIVQLKDFQWDSDNIYLIMEFCAGGDLSRFIHTRRILPEKVARVFMQQLASALQFLHERNISHLDLKPQNILLSSLEKPHLKLADFGFAQHMSPWDEKHVLRGSPLYMAPEMVCQRQYDARVDLWSMGVILYEALFGQPPFASRSFSELEEKIRSNRVIELPLRPLLSRDCRDLLQRLLERDPSRRISFQDFFAHPWVDLEHMPSGESLGRATALVVQAVKKDQEGDSAAALSLYCKALDFFVPALHYEVDAQRKEAIKAKVGQYVSRAEELKAIVSSSNQALLRQGTSARDLLREMARDKPRLLAALEVASAAMAKEEAAGGEQDALDLYQHSLGELLLLLAAEPPGRRRELLHTEVQNLMARAEYLKEQVKMRESRWEADTLDKEGLSESVRSSCTLQ
Take B4: the binding entry in [2] and in assay [3] was “binds” throughout.

B5: ULK3 M434D fused to the VP16 activation domain (enzyme, UniProt Q6PHR2 1-472)
chain: MAGPGWGPPRLDGFILTERLGSGTYATVYKAYAKKDTREVVAIKCVAKKSLNKASVENLLTEIEILKGIRHPHIVQLKDFQWDSDNIYLIMEFCAGGDLSRFIHTRRILPEKVARVFMQQLASALQFLHERNISHLDLKPQNILLSSLEKPHLKLADFGFAQHMSPWDEKHVLRGSPLYMAPEMVCQRQYDARVDLWSMGVILYEALFGQPPFASRSFSELEEKIRSNRVIELPLRPLLSRDCRDLLQRLLERDPSRRISFQDFFAHPWVDLEHMPSGESLGRATALVVQAVKKDQEGDSAAALSLYCKALDFFVPALHYEVDAQRKEAIKAKVGQYVSRAEELKAIVSSSNQALLRQGTSARDLLREMARDKPRLLAALEVASAAMAKEEAAGGEQDALDLYQHSLGELLLLLAAEPPGRRRELLHTEVQNLDARAEYLKEQVKMRESRWEADTLDKEGLSESVRSSCTLQ
For the molecule B5, the binding result in assay [3] is given as “binds”.

B6: ULK3 V338D fused to the VP16 activation domain (enzyme, UniProt Q6PHR2 1-472)
chain: MAGPGWGPPRLDGFILTERLGSGTYATVYKAYAKKDTREVVAIKCVAKKSLNKASVENLLTEIEILKGIRHPHIVQLKDFQWDSDNIYLIMEFCAGGDLSRFIHTRRILPEKVARVFMQQLASALQFLHERNISHLDLKPQNILLSSLEKPHLKLADFGFAQHMSPWDEKHVLRGSPLYMAPEMVCQRQYDARVDLWSMGVILYEALFGQPPFASRSFSELEEKIRSNRVIELPLRPLLSRDCRDLLQRLLERDPSRRISFQDFFAHPWVDLEHMPSGESLGRATALVVQAVKKDQEGDSAAALSLYCKALDFFVPALHYEVDAQRKEAIKAKVGQYDSRAEELKAIVSSSNQALLRQGTSARDLLREMARDKPRLLAALEVASAAMAKEEAAGGEQDALDLYQHSLGELLLLLAAEPPGRRRELLHTEVQNLMARAEYLKEQVKMRESRWEADTLDKEGLSESVRSSCTLQ
As for B6, the binding result in [3] is reported as “binds”.

B7: endogenous ULK3 (enzyme, UniProt Q6PHR2 1-472)
chain: MAGPGWGPPRLDGFILTERLGSGTYATVYKAYAKKDTREVVAIKCVAKKSLNKASVENLLTEIEILKGIRHPHIVQLKDFQWDSDNIYLIMEFCAGGDLSRFIHTRRILPEKVARVFMQQLASALQFLHERNISHLDLKPQNILLSSLEKPHLKLADFGFAQHMSPWDEKHVLRGSPLYMAPEMVCQRQYDARVDLWSMGVILYEALFGQPPFASRSFSELEEKIRSNRVIELPLRPLLSRDCRDLLQRLLERDPSRRISFQDFFAHPWVDLEHMPSGESLGRATALVVQAVKKDQEGDSAAALSLYCKALDFFVPALHYEVDAQRKEAIKAKVGQYVSRAEELKAIVSSSNQALLRQGTSARDLLREMARDKPRLLAALEVASAAMAKEEAAGGEQDALDLYQHSLGELLLLLAAEPPGRRRELLHTEVQNLMARAEYLKEQVKMRESRWEADTLDKEGLSESVRSSCTLQ
Regarding B7, the binding result with HA-CHMP1A (human) was “binds”; with HA-CHMP2A (human), “binds”; in the assay with HA-CHMP2B (human) it was “no binding”.
